In the supplement of paper PMC9151546:
Repeats are few or missing, and single values can be far off.

Experiments:
CHO-K1 [1] = assay: micronucleus frequency (% of nucleated events); higher = more micronuclei (genotoxic)
CHO-K1 [2] = assay: hypodiploid nuclei frequency (% of nucleated events); higher = more hypodiploid events (aneugenic)
Protocol: (§1)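 Flow-cytometric in vitro micronucleus assay (Litron MicroFlow) in CHO-K1 cells in 96-well plates, 19 concentrations (4.5-200 µM, n=1 per concentration). Without S9, cells were exposed for 24 h and sampled at 48 h. With Aroclor 1254-induced rat liver S9, cells were exposed for 3-4 h and sampled at 27-28 h. Read-outs are %MN and %hypodiploid nuclei relative to nucleated events, and relative survival as the nuclei-to-bead ratio versus the 1% DMSO vehicle control (x100).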

CHO-K1 [3] = assay: relative survival (nuclei to bead ratio vs DMSO control) (% of vehicle control); higher = more surviving cells
Protocol: as §1
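Wherever hypodiploid nuclei frequency (% of nucleated events) is given: hypodiploid nuclei gated on a flow cytometer with 488 nm excitation after SYTOX Green staining, cultures at 37 °C, positive controls vinblastine without S9 and cyclophosphamide with S9.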
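Wherever micronucleus frequency (% of nucleated events) is given: cells lysed with nuclei stained by SYTOX Green, then micronucleus-gated events counted against nucleated events by flow cytometry with 488 nm excitation.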
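Wherever relative survival (nuclei to bead ratio vs DMSO control) is given: Lysed-cell nuclei stained with SYTOX Green and counted against counting beads by flow cytometry at 488 nm excitation, with vinblastine (no S9) and cyclophosphamide (plus S9) as positive controls.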

COc1cc(C=O)ccc1O [4-Hydroxy-3-methoxybenzaldehyde]
Conditions	hypodiploid nuclei frequency, CHO-K1 [2] [%]	micronucleus frequency, CHO-K1 [1] [%]	relative survival, CHO-K1 [3]
concentration: 4.5 (µM), S9 metabolic activation: with S9, exposure time: 3-4 hours	0.26	1.12	78.8
concentration: 4.5 (µM), S9 metabolic activation: without S9, exposure time: 24 hours	0.32	1.34	80.8
concentration: 5.63 (µM), S9 metabolic activation: with S9, exposure time: 3-4 hours	0.24	1.2	85.8
concentration: 5.63 (µM), S9 metabolic activation: without S9, exposure time: 24 hours	0.52	2.44	89.9
concentration: 7.04 (µM), S9 metabolic activation: with S9, exposure time: 3-4 hours	0.2	0.64	70.3
concentration: 7.04 (µM), S9 metabolic activation: without S9, exposure time: 24 hours	0.66	0.88	66.1
concentration: 8.8 (µM), S9 metabolic activation: with S9, exposure time: 3-4 hours	0.24	1.3	82.3
concentration: 8.8 (µM), S9 metabolic activation: without S9, exposure time: 24 hours	0.7	1.6	50.7
concentration: 11 (µM), S9 metabolic activation: with S9, exposure time: 3-4 hours	0.3	1.22	93.2
concentration: 11 (µM), S9 metabolic activation: without S9, exposure time: 24 hours	0.74	1.58	45
concentration: 13.7 (µM), S9 metabolic activation: with S9, exposure time: 3-4 hours	0.34	1.04	93
concentration: 13.7 (µM), S9 metabolic activation: without S9, exposure time: 24 hours	0.64	1.46	75.7
concentration: 17.2 (µM), S9 metabolic activation: with S9, exposure time: 3-4 hours	0.24	1.04	116
concentration: 17.2 (µM), S9 metabolic activation: without S9, exposure time: 24 hours	0.48	1.08	53.4
concentration: 21.5 (µM), S9 metabolic activation: with S9, exposure time: 3-4 hours	0.42	1	112
concentration: 21.5 (µM), S9 metabolic activation: without S9, exposure time: 24 hours	0.72	1.1	62.4
concentration: 26.8 (µM), S9 metabolic activation: with S9, exposure time: 3-4 hours	0.2	1.28	71.6
concentration: 26.8 (µM), S9 metabolic activation: without S9, exposure time: 24 hours	0.66	1.42	76
concentration: 33.6 (µM), S9 metabolic activation: with S9, exposure time: 3-4 hours	0.34	1.4	87.5
concentration: 33.6 (µM), S9 metabolic activation: without S9, exposure time: 24 hours	0.42	1.62	82.8
concentration: 41.9 (µM), S9 metabolic activation: with S9, exposure time: 3-4 hours	0.22	1.84	107
concentration: 41.9 (µM), S9 metabolic activation: without S9, exposure time: 24 hours	0.72	1.48	71.7
concentration: 52.4 (µM), S9 metabolic activation: with S9, exposure time: 3-4 hours	0.14	0.94	85.1
concentration: 52.4 (µM), S9 metabolic activation: without S9, exposure time: 24 hours	1.14	2.04	76.7
concentration: 65.5 (µM), S9 metabolic activation: with S9, exposure time: 3-4 hours	0.32	1.12	115
concentration: 65.5 (µM), S9 metabolic activation: without S9, exposure time: 24 hours	0.82	1.18	73.8
concentration: 81.9 (µM), S9 metabolic activation: with S9, exposure time: 3-4 hours	0.14	0.98	105
concentration: 81.9 (µM), S9 metabolic activation: without S9, exposure time: 24 hours	0.82	1.36	70.6
concentration: 102 (µM), S9 metabolic activation: with S9, exposure time: 3-4 hours	0.22	1.36	91.3
concentration: 102 (µM), S9 metabolic activation: without S9, exposure time: 24 hours	1.2	1.78	57.2
concentration: 128 (µM), S9 metabolic activation: with S9, exposure time: 3-4 hours	0.22	1.26	96.6
concentration: 128 (µM), S9 metabolic activation: without S9, exposure time: 24 hours	1.12	1.7	62.4
concentration: 160 (µM), S9 metabolic activation: with S9, exposure time: 3-4 hours	0.12	1.02	104
concentration: 160 (µM), S9 metabolic activation: without S9, exposure time: 24 hours	1.18	1.44	73.8
concentration: 200 (µM), S9 metabolic activation: with S9, exposure time: 3-4 hours	0.12	1.04	96.1
concentration: 200 (µM), S9 metabolic activation: without S9, exposure time: 24 hours	1.54	2.4	50.1
